The record followed here is article PMC3110179.

Test [1] has as its target T1, C-terminus of phot1 including its Ser/Thr kinase domain (amino acids 612-996), two-hybrid bait (Arabidopsis thaliana) (UniProt O48963).
T1 sequence: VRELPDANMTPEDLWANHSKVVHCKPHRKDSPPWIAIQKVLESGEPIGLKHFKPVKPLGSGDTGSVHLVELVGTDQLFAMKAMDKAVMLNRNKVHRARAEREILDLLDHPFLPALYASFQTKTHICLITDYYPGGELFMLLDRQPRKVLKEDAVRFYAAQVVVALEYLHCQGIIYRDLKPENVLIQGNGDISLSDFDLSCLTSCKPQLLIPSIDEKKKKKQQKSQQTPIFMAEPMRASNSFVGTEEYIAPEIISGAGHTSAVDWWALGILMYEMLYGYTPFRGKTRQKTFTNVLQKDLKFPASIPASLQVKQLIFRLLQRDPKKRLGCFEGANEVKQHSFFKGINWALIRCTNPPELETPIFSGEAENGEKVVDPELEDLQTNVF
The test can be described thus: two-hybrid; yeast; regions of B19 (and B1) in pGADT7 prey, regions of PHOT1 in pGBKT7 bait; growth on full selection medium.

For test [2], the target named is B19-hemagglutinin (B19:B19-HA) (Arabidopsis thaliana) (UniProt Q9LJX0). The test can be described thus: co-IP; B19-HA immunoprecipitated with anti-HA from Arabidopsis seedlings overexpressing TWD1 and B19-HA; dark-acclimated or 3-d-old dark-grown seedlings, with or without directional blue light (2 µmol m^-2 s^-1, 2 h; interaction attenuated, not in phot1-5); immunoblot with anti-B19 and anti-TWD1. In general terms: Immunoblotting shows a protein as a band on a membrane.

No constants are given. Whether binding was seen depends on the method and setting. For part of these data: Binding seen in cells or lysates may run through a third protein. Some results given as binding are weak or reduced against the parent protein; the word gives no strength.

B1: C-terminus of B1 (B1C, amino acids 1049-1286), two-hybrid prey (domain or fragment, UniProt Q9ZR72 1049-1286)
chain: ARAGKTLALVGPSGCGKSSVISLIQRFYEPSSGRVMIDGKDIRKYNLKAIRKHIAIVPQEPCLFGTTIYENIAYGHECATEAEIIQAATLASAHKFISALPEGYKTYVGERGVQLSGGQKQRIAIARALVRKAEIMLLDEATSALDAESERSVQEALDQACSGRTSIVVAHRLSTIRNAHVIAVIDDGKVAEQGSHSHLLKNHPDGIYARMIQLQRFTHTQVIGMTSGSSSRVKEDDA
On to B1, for which the binding result in test [1] is “no binding”.

B2: FKBP42/TWISTED DWARF 1 (TWD1) (protein, UniProt Q9LDC0 1-365)
chain: MDESLEHQTQTHDQESEIVTEGSAVVHSEPSQEGNVPPKVDSEAEVLDEKVSKQIIKEGHGSKPSKYSTCFLHYRAWTKNSQHKFEDTWHEQQPIELVLGKEKKELAGLAIGVASMKSGERALVHVGWELAYGKEGNFSFPNVPPMADLLYEVEVIGFDETKEGKARSDMTVEERIGAADRRKMDGNSLFKEEKLEEAMQQYEMAIAYMGDDFMFQLYGKYQDMALAVKNPCHLNIAACLIKLKRYDEAIGHCNIVLTEEEKNPKALFRRGKAKAELGQMDSARDDFRKAQKYAPDDKAIRRELRALAEQEKALYQKQKEMYKGIFKGKDEGGAKSKSLFWLIVLWQWFVSLFSRIFRRHRVKAD
Consider B2, for which, in test [2], the binding entry was “binds”.

B3: internal NBD of B19 (B19I, amino acids 480-660), two-hybrid prey (domain or fragment, UniProt Q9LJX0 480-660)
chain: ANAHSFITLLPKGYDTQVGERGVQLSGGQKQRIAIARAMLKDPKILLLDEATSALDASSESIVQEALDRVMVGRTTVVVAHRLCTIRNVDSIAVIQQGQVVETGTHEELIAKSGAYASLIRFQEMVGTRDFSNPSTRRTRSTRLSHSLSTKSLSLRSGSLRNLSYSYSTGADGRIEMISNA
For B3, in test [1], the binding entry is recorded as “binds”.
